Source: the RNAGym collection of RNA variant scans (doi:10.7554/elife.90254)
The source gives no read counts; variants with many changes may rest on few reads.

B1: LINE1-mini (parent)
chain: GGCAGAGCUCAACACAGCGUGGCAAAGUGGCUGUGGCUAGACUGCC

Variants of: B1
Assay: self-cleavage, relative activity (ratio to wild type); higher = more cleavage; in vitro, sequencing; the parent is a self-cleaving ribozyme

Row | Variant | self-cleavage
1 | A14G C15G C31G | 0.01
2 | U9A A16C G17C U20A | 0.06
3 | A4G A6C A14C A25U U34A C42U | 0.14
4 | C8A A39C G40U C46A | 0.02
5 | C3U C8G C23U A25U | 0.06
6 | G27U G40C C45U | 0.02
7 | G7A A11C G19U G29U | 0
8 | C10U C18A C31U G40C | 0.02
9 | G2U A4G C18G | 0.06
10 | A4G A12G A14C C18G | 0
11 | G5U G7A C10A U38A A41C | 0.04
12 | A4U G19C C23U A26G G36C C37A | 0.45
13 | A6G A12U G21C G44U | 0.19
14 | G5C G36U A41G | 0.04
15 | C13A A39C U43G C45U | 0.1
16 | A4G C8G A26U G27U U28G C31G | 0
17 | G5U U32G G40U | 0
18 | C3U A16G G29C | 0.07
19 | A6G U20G G21U | 0.11
20 | C3G C10G G17U G44A C45A | 0.04
21 | A12C A25C G30C | 0.01
22 | C10A A12G A16U | 0.02
23 | C8A G27C G44A | 0.13
24 | G5C U9A G35C | 0.02

Row | Variant | self-cleavage
25 | G2A C13G G40U A41U | 0.14
26 | A6U G7U C37A | 0.02
27 | G5C C18U A24C C45U | 0.03
28 | G22C C23A G27A | 0.5
29 | A6C C15A A24C U28C U38C | 0.01
30 | G7C C10A C13U G29A C31A | 0.07
31 | G7A U28G A39U | 0.09
32 | C13U C18A G22U | 0.08
33 | G2C C10A C18A U32A C45A C46G | 0
34 | C3A G22U C23U A39G G40U | 2.83
35 | G30A C31U U43A C46U | 0.01
36 | A12U G21C U38C | 0.31
37 | G5A G21A C31G | 0.02
38 | G1C G7C G19C | 0.03
39 | C3G U9C G17A U20A U28G G30C C31U A39C | 0.02
40 | A14G G35U G44A | 0.03
41 | C31G U38C G40U C45A | 0.09
42 | G2C G7A C10G C18U A25G | 0.01
43 | C8A A16C C23U | 0.85
44 | C3A A12C A39U G40A | 0.05
45 | G17A G27U G36A | 0.09
46 | G1A A25C A26C C31G | 0.03
47 | C10U C37U C46A | 0
48 | A14C U32A G33C C37A G44A | 0.02

Row | Variant | self-cleavage
49 | G22U C23A G40U | 0.05
50 | C3G C18U G35U | 0.19
51 | G2U U9A G19C G21A G22C | 0.03
52 | C8A U9A C15A A39U C42G | 0.16
53 | G21C C23A A26G | 0.42
54 | C23U A26G G27U | 0.78
55 | G7A C15U G27A | 0.9
56 | C15U C18U G21C | 1.85
57 | C8A G27A G30U | 0.1
58 | G5U U28A G40A | 0.06
59 | G7C U32C G33C G44U | 0.06
60 | G5A A12U G19A G27A | 0.1
61 | G7U U20G G30A C37A A39U C45U | 0.08
62 | G2U C8U C15A C18G A24G A26U | 0.01
63 | A11U C23G U28A | 0.15
64 | A11U C18G G21C A41C | 0.01
65 | G2U C3G G36C U43A | 0.24
66 | C3U U9G A12U G19C U20C A39G | 0.02
67 | A6U A11U U34G | 0.1
68 | C13G G17U G29A | 0.05
69 | G5C G22U G30U | 0.63
70 | G5U G21U C45G | 0.04
71 | A11G C18U C23G U28A | 0.02
72 | G17C G22A G36U C46U | 0.01

Row | Variant | self-cleavage
73 | A4G C10A C15G G35U C46A | 0.02
74 | G2C C18U G30A G44U C46G | 0.24
75 | C8U C37U G44C | 0.07
76 | C18U U20A A25U U28G G36U | 0.03
77 | G7U U9G C10A A14G U20G | 0.02
78 | A11G A12U A25U | 0.05
79 | G27A U28C A39C | 0.04
80 | G2C A6C C18U G22U | 0.91
81 | C3U G21U U32G | 0.14
82 | A4G C23A C37G | 0.04
83 | C8G G17A A26U C42U | 0.06
84 | C23U U34A A39G | 0.23
85 | A14C A26U G35A G36U | 0.09
86 | G2A C10A A16C G19U | 0.06
87 | U34A G35A A39G C45U | 0.01
88 | C3U G36A G40U G44C | 0.09
89 | A6G G17A A41G | 0.03
90 | C10U G40U A41U | 0.07
91 | A6G G7C G36U G44U | 0.08
92 | G7C A25C A39U | 0.07
93 | A14U G21C A25G G29U | 0.04
94 | C3U G17A G29A | 0.21
95 | U28C G30U A41C C42A | 0.02
96 | G5U C15A A16C | 0.02

Row | Variant | self-cleavage
97 | U9G C37A G44U | 0.23
98 | A6G A12C U20C | 0
99 | G17A C31A A39C | 0.01
100 | G2A G5U C8G | 0.04
101 | G22C A25U A39G G44A | 0.33
102 | G19U U32G U43A | 0.05
103 | G7C A12C U20G G33C | 0.01
104 | C23A A41G C45G | 0.04
105 | C10A C15A G36C | 0.01
106 | A4U C23G C46G | 0.04
107 | C15A G19C G29U | 0.03
108 | A14U U20A A24C | 0.03
109 | G7U U20G C23A G35U | 0.11
110 | G2U C15A G19U U34C G44U | 0.02
111 | U9G A14C C18G C37A | 0.16
112 | A4G G7A A11G G44A | 0.02
113 | G1A A4G C42A | 0.06
114 | A6C A25G G35A A41C | 0.13
115 | G2C G5C G22C A41U | 0.05
116 | C8G A16U G33U U43C | 0.02
117 | G7A A11G G17C U32G G33U | 0.01
118 | G2C G5C G17U C31A | 0.01
119 | A12U A14G G33C U34A | 0.02
120 | G2C A25C G29A G35U | 0.02

Row | Variant | self-cleavage
121 | A4U A11U C15U C18U | 0.01
122 | U32A G36C C37A | 0.14
123 | C3A G7U C13A G19C C31U | 0.13
124 | A4U A25G G35A | 0.01
125 | G5U A16G G29U | 0.29
126 | C3G G7U C45G | 0.13
127 | G5U C10U C37U C46U | 0.04
128 | G17C G29A G36U | 0.05
129 | C3G A6G C13A C15G U32G | 0.06
130 | A6C C18G U43A | 0.02
131 | U9A C23A G35C | 0.06
132 | C10U C13G U28C | 0.11
133 | G19C U20G C37A U43C | 0.84
134 | C3U U20G G27U | 0.19
135 | C3U A11C U20A | 0.02
136 | A12U A26U G30C | 0.08
137 | G2U C13A G17U | 0
138 | A6C U20G C31A | 0.05
139 | A4U C37A C46A | 0.22
140 | G5A G27U G33U | 0.11
141 | U20A C23U G27U | 2
142 | C8A U9A C23G C31G | 0.06
143 | G7C C8A C46U | 0.18
144 | U9A C15U G19A U43C | 0.15

Row | Variant | self-cleavage
145 | U9A C18A G33A G35C | 0.08
146 | G1A A12U G17C | 0.17
147 | G1A G33A A41U | 0.04
148 | G2U C15A A25C G27U | 0.05
149 | C13G C31G G35U | 0.07
150 | A12U G17U U20G | 0.07
151 | A6U C23U U34G A39C | 0.26
152 | U9C A26C A41C | 0.05
153 | C10G C15A G17A G30U | 0.01
154 | G2U A4U A14C U20A A26C U28A | 0.02
155 | C18G A24U G36U C46G | 0.04
156 | G19C G30A C37U C42U | 0.04
157 | A4C C18G G27U U43A | 0.05
158 | C3A C13G C46A | 0.14
159 | A14U G22U A25G G35A A41G | 0.02
160 | C13A A14C A16C G36U C37G U38G | 0.05
161 | G1A C8A G22A | 0.44
162 | G36U C37A A41G | 0.01
163 | G5C G7C G30U | 0.11
164 | A6U C13U G22A G35A C37A | 0.03
165 | C8G A12C G22C C37A G44U C45A | 0.01
166 | A26G U38A G44A | 0.02
167 | A11C C15A A39G | 0.03
